From the supplement of paper PMC9446081
The campaign covered roughly 39,000 compounds. About 220 (0.56%) showed activity. Some of the results follow.
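Also: static incubation at 37 °C against the wild-type strain, values averaged over two biological replicates.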

These compounds were tested on Escherichia coli K-12 BW25113 (assay: relative growth (OD600 normalised to plate interquartile mean) (fraction); higher = less growth inhibition, active = 0.2 or less). Conditions: 50 µM; LB; incubation time: overnight (16-24 h).
With `Cc1noc(C)c1S(=O)(=O)Nc1ccc2c(c1)C(=O)N([C@@H](C)CO)C[C@H](C)[C@H](CN(C)Cc1ccc(-c3ccccc3)cc1)O2` the relative growth was inactive: 0.996.
For `OCC1(CO)COC2(CCCCC2)N1`, the relative growth was inactive: 1.01.
In the case of `CO[C@@H]1CN(C)C(=O)c2ccc(NS(C)(=O)=O)cc2OC[C@@H](C)N(C(=O)C2CCOCC2)C[C@H]1C`, the relative growth is reported as inactive: 1.03.
`O=C(C[C@@H]1CC[C@H]2[C@@H](COC[C@@H](O)CN2C(=O)c2cccnc2)O1)NCc1ccc(-c2ccccc2)cc1` was tested, and the relative growth was inactive: 1.02.
In the case of `Nc1cccc(-c2cccs2)c1`, the relative growth is reported as inactive: 0.976.
For `Cc1ccc(S(=O)(=O)N2CCN(CC(=O)N/N=C/c3ccccn3)CC2)cc1`, the relative growth was inactive: 0.984.
In the case of `NC(=O)N1C(=O)[C@H]2[C@H](C1=O)[C@H]1C=C(CCCO)[C@@H]2[C@H](c2cccs2)N1Cc1cc2c(cc1Br)OCO2`, the relative growth is reported as inactive: 1.01.
With `COc1ccc2c3c([nH]c2c1)[C@H](CO)N(C[C@]13CCN(CC1)C(=O)CN(C)C)S(=O)(=O)C` the relative growth was inactive: 1.01.
`COc1ccc(NC(=O)N(C)C[C@@H]2OCc3cn(nn3)CCCC(=O)N([C@@H](C)CO)C[C@@H]2C)c(OC)c1` was tested, and the relative growth was inactive: 0.978.
In the case of `CN1CCN(C(=O)C[C@@H]2CC[C@@H]3[C@@H](COc4ccc(NC(=O)c5ccc(F)c(F)c5)cc4C(=O)N3C)O2)CC1`, the relative growth is reported as inactive: 0.999.
`Nc1nc(=O)[nH]cc1F` was tested, and the relative growth was inactive: 0.935.
In the case of `C[C@@H]1CN([C@H](C)CO)C(=O)Cc2cc(NC(=O)Cn3cnnn3)ccc2O[C@H]1CN(C)Cc1ccccc1`, the relative growth is reported as inactive: 0.857.
For `COc1ccc(CN(C)C[C@@H]2OCCCC[C@@H](C)Oc3ccc(NC(=O)Nc4ccc5c(c4)OCO5)cc3C(=O)N([C@@H](C)CO)C[C@@H]2C)cc1`, the relative growth was inactive: 0.953.
With `COc1ccccc1CNC(=O)C[C@H]1C[C@H]2c3cc(NC(=O)c4cccnc4)ccc3O[C@H]2[C@H](CO)O1` the relative growth was inactive: 0.974.
With `O=C(C[C@@H]1C=C[C@H](NS(=O)(=O)c2ccccc2F)[C@H](CO)O1)NCCCN1CCOCC1` the relative growth was inactive: 1.04.
With `C[C@H](CO)N1C[C@H](C)[C@H](CN(C)Cc2ccc(C(=O)O)cc2)Oc2ccc(NC(=O)Nc3cccc4ccccc34)cc2CC1=O` the relative growth was inactive: 0.994.
In the case of `CN(C)CCCN1c2ccccc2Sc2ccccc21.Cl`, the relative growth is reported as inactive: 0.886.
With `C[C@H](CO)N1C[C@H](C)[C@@H](CN(C)Cc2ccc3c(c2)OCO3)Oc2ccc(NC(=O)Cn3cnnn3)cc2C1=O` the relative growth was inactive: 1.
With `COc1ccc(CN(C)C[C@H]2OCCCC[C@@H](C)Oc3ccc(NS(=O)(=O)c4ccc(F)cc4)cc3C(=O)N([C@@H](C)CO)C[C@H]2C)cc1` the relative growth was inactive: 1.02.
With `Cc1noc(C)c1S(=O)(=O)Nc1ccc2c(c1)C(=O)N([C@H](C)CO)C[C@H](C)[C@H](CN(C)S(=O)(=O)c1c(C)noc1C)O2` the relative growth was inactive: 1.01.
In the case of `C[C@H](CO)N1C[C@H](C)[C@@H](CN(C)C(=O)C2CCCCC2)Oc2ncc(C#CC3(O)CCCC3)cc2C1=O`, the relative growth is reported as inactive: 1.02.
`Cc1ccc(C(=O)Nc2ccc(Oc3cc4cnn(C)c4cc3-c3cn[nH]c3)c(F)c2)c(=O)n1-c1ccc(F)cc1` was tested, and the relative growth was inactive: 1.04.
For `C[C@H]1CCCCO[C@@H](CN(C)S(=O)(=O)c2ccc(F)cc2)[C@@H](C)CN([C@@H](C)CO)C(=O)c2cc(NS(=O)(=O)c3ccc(Cl)cc3)ccc2O1`, the relative growth was inactive: 1.
With `CN(C)CCCNC(=O)C[C@H]1CC[C@H]2[C@@H](COC[C@H](O)CN2S(=O)(=O)c2ccc(F)cc2)O1` the relative growth was inactive: 0.991.
`C[C@@H]1CCCCO[C@@H](CN(C)C(=O)Nc2ccc3c(c2)OCO3)[C@@H](C)CN([C@H](C)CO)C(=O)c2cc(NC(=O)CCC(F)(F)F)ccc2O1` was tested, and the relative growth was inactive: 0.996.
In the case of `CC[C@H](C#CCN1CCOCC1)OC(C)=O`, the relative growth is reported as inactive: 1.
With `Cc1ccc(S(=O)(=O)Nc2ccc3c(c2)C(=O)N([C@@H](C)CO)C[C@H](C)[C@@H](CN(C)Cc2ccc4c(c2)OCO4)OCCCC[C@@H](C)O3)cc1` the relative growth was inactive: 1.01.
With `Cc1noc(C)c1S(=O)(=O)Nc1ccc2c(c1)CC(=O)N([C@H](C)CO)C[C@H](C)[C@@H](CN(C)S(=O)(=O)c1ccc(Cl)cc1)O2` the relative growth was inactive: 0.939.
For `C[C@H]1CCCCO[C@H](CN(C)Cc2ccc(C(=O)O)cc2)[C@@H](C)CN([C@@H](C)CO)C(=O)c2cc(NC(=O)c3ccccc3)ccc2O1`, the relative growth was inactive: 1.03.
In the case of `C[C@H](CO)N1C[C@H](C)[C@@H](CN(C)C(=O)Cc2ccccc2)Oc2cc(-c3cncnc3)ccc2S1(=O)=O`, the relative growth is reported as inactive: 0.973.
With `COc1ccc2c3c(n(c2c1)C)[C@H](CO)N(C[C@]13CCN(CC1)C(=O)CC1CC1)C(=O)CN1CCOCC1` the relative growth was inactive: 0.994.
For `CN1CCCC(n2nc(Cc3ccc(Cl)cc3)c3ccccc3c2=O)CC1.Cl` (configuration not stated), the relative growth was inactive: 0.915.
`COC(=O)c1c(CC[C@@H](CO)NC(=O)N[C@@H](Cc2ccccc2)Cn2cc(-c3ccccc3)nn2)oc(C(=O)N2CCOCC2)c1C(=O)OC` was tested, and the relative growth was inactive: 0.986.
With `CN(C)CCCNC(=O)C[C@@H]1CC[C@H]2[C@@H](COc3ccc(NC(=O)NC4CCCC4)cc3C(=O)N2C)O1` the relative growth was inactive: 1.01.
In the case of `CC(C)NC(=O)N(C)C[C@@H]1Oc2c(NC(=O)NC3CCCCC3)cccc2C(=O)N([C@@H](C)CO)C[C@H]1C`, the relative growth is reported as inactive: 1.01.
For `C[C@@H]1CCCCO[C@H](CN(C)C(=O)Cc2ccccc2)[C@H](C)CN([C@@H](C)CO)C(=O)c2cc(NS(=O)(=O)c3ccc(Cl)cc3)ccc2O1`, the relative growth was inactive: 1.03.
For `O=C(NCCO)c1cccc(C(=O)NCCO)c1`, the relative growth was inactive: 0.988.
In the case of `Cc1noc(C)c1NC(=O)Nc1ccc2c(c1)C(=O)N([C@H](C)CO)C[C@H](C)[C@H](CN(C)C(=O)Nc1ccc(C(F)(F)F)cc1)OCCCC[C@H](C)O2`, the relative growth is reported as inactive: 1.06.
With `OCCc1ccc(O)c(O[C@H]2O[C@@H](CO)[C@@H](O)[C@@H](O)[C@@H]2O)c1` the relative growth was inactive: 0.934.
In the case of `CN1C(=O)c2cc(NC(=O)Cc3cccs3)ccc2OC[C@H]2O[C@@H](CC(=O)NCCc3ccncc3)CC[C@H]21`, the relative growth is reported as inactive: 0.886.
For `CCS(=O)(=O)N1C[C@]2(C1)CN([C@H](CO)c1c2c2ccc(cc2n1C)OC)C(=O)CN1CCOCC1`, the relative growth was inactive: 1.03.
For `O=C(O)c1ccc2ccccc2c1`, the relative growth was inactive: 1.02.
In the case of `C[C@@H]1CN([C@H](C)CO)C(=O)Cc2cc(NC(=O)CCC(F)(F)F)ccc2O[C@@H]1CN(C)C(=O)Nc1cccc2ccccc12`, the relative growth is reported as inactive: 0.989.
With `O=C(NC1CCC1)[C@@H]1[C@@H](CO)[C@@H]2Cn3c(cccc3=O)[C@@H]2N1CC1CCOCC1` the relative growth was inactive: 1.01.
In the case of `COc1ccc(S(=O)(=O)Nc2ccc3c(c2)C(=O)N([C@@H](C)CO)C[C@H](C)[C@H](CN(C)Cc2ccc(-c4ccccc4)cc2)O3)cc1`, the relative growth is reported as inactive: 0.971.
`COc1ccc(S(=O)(=O)N(C)C[C@H]2Oc3ccc(NC(=O)CCN4CCOCC4)cc3CC(=O)N([C@H](C)CO)C[C@H]2C)cc1` was tested, and the relative growth was inactive: 1.01.
With `C[C@@H]1CCCCO[C@@H](CN(C)Cc2ccccc2)[C@H](C)CN([C@@H](C)CO)C(=O)c2cc(NS(=O)(=O)c3ccc(F)cc3)ccc2O1` the relative growth was inactive: 1.
For `C[C@@H]1CN([C@H](C)CO)C(=O)Cc2cc(NC(=O)NC3CCCCC3)ccc2O[C@H]1CN(C)Cc1ccc(C(=O)Nc2ccccc2N)cc1`, the relative growth was inactive: 1.
In the case of `CCN1[C@@H]2c3ccc(-c4ccncc4)c(=O)n3C[C@@H]2[C@@H](CO)[C@@H]1C(=O)NCCc1cn(C)cn1`, the relative growth is reported as inactive: 1.
With `C[C@@H]1CN([C@@H](C)CO)C(=O)Cc2cc(NC(=O)CCC(F)(F)F)ccc2O[C@H]1CN(C)Cc1ccc(Cl)c(Cl)c1` the relative growth was inactive: 0.978.
For `Cc1ccc(S(=O)(=O)Nc2ccc3c(c2)C(=O)N([C@H](C)CO)C[C@@H](C)[C@@H](CN(C)CC2CCCCC2)OCCCC[C@@H](C)O3)cc1`, the relative growth was inactive: 0.973.
`CCCC#Cc1cnc2c(c1)C(=O)N([C@@H](C)CO)C[C@@H](C)[C@H](CN(C)S(=O)(=O)c1cn(C)cn1)O2` was tested, and the relative growth was inactive: 1.03.
`COCC(=O)Nc1ccc2c(c1)OC[C@H](C)N(Cc1ccccc1F)C[C@H](C)[C@H](OC)CN(C)C2=O` was tested, and the relative growth was inactive: 0.946.
In the case of `[N-]=[N+]=Nc1ccccc1[C@H]1OC(c2ccc(OCCCO)cc2)=N[C@@]1(CCS(=O)(=O)c1ccccc1)C(=O)NCc1ccccc1`, the relative growth is reported as inactive: 0.997.
`Nc1nnc(-c2cccc(Cl)c2Cl)c(N)n1` was tested, and the relative growth was inactive: 0.732.
In the case of `CC(C)NC(=O)Nc1ccc2c(c1)CC(=O)N([C@H](C)CO)C[C@H](C)[C@H](CN(C)S(=O)(=O)c1ccccc1)O2`, the relative growth is reported as inactive: 1.03.
`COc1ccc(S(=O)(=O)Nc2cccc3c2O[C@H](CN(C)C(=O)Nc2cccc4ccccc24)[C@@H](C)CN([C@H](C)CO)C3=O)cc1` was tested, and the relative growth was inactive: 1.01.
`C[C@H]1CN([C@@H](C)CO)C(=O)c2cccc(NC(=O)Nc3ccccc3)c2O[C@H]1CN(C)CC1CCCCC1` was tested, and the relative growth was inactive: 1.03.
In the case of `O=C(C[C@H]1CC[C@@H]2[C@H](COC[C@H](O)CN2S(=O)(=O)c2ccccc2)O1)NCCN1CCCC1`, the relative growth is reported as inactive: 1.02.
With `COc1ccc(NC(=O)Nc2ccc3c(c2)CC(=O)N([C@@H](C)CO)C[C@H](C)[C@@H](CN(C)S(C)(=O)=O)O3)cc1` the relative growth was inactive: 1.02.
For `C[C@@H]1CN([C@H](C)CO)C(=O)c2cc(NS(=O)(=O)c3cccs3)ccc2O[C@@H](C)CCCCO[C@H]1CN(C)S(=O)(=O)c1ccc(Cl)cc1`, the relative growth was inactive: 1.01.
`C[C@H](CO)N1C[C@H](C)[C@@H](CN(C)C(=O)c2ccccc2)OCCCC[C@H](C)Oc2ccc(NC(=O)NC3CCCCC3)cc2C1=O` was tested, and the relative growth was inactive: 0.985.
